Hit rate of the full screen: of about 2,700 compounds, about 160 (5.9%) showed an effect of 50% or more. The list shows a part of the results.
Biological target: Nonstructural protein 3 (Zika virus) (UniProt A0A024AXB9)
[1] = PRVABC59, Concentration 15.0 uM, Number of replicates 1.0
[2] = PRVABC59, Concentration 50.0 uM, Number of replicates 1.0

Sequence of UniProt A0A024AXB9 (A0A024AXB9 as listed by the source): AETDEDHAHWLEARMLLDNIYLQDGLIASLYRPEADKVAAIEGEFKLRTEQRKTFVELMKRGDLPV

Compound: O=C(N[C@H](CO)Cc1ccc(Cl)cc1)c1cc(Cl)ccc1NS(=O)(=O)c1ccc(Oc2ccccc2Cl)cc1
- inhibition [1]: 50.2%

Compound: Cc1cc(CO)c2cccc(Cc3ccccc3NC(=O)[C@@H](N)CCN)c2n1
- inhibition (PRVABC59, Concentration 49.95 uM, Number of replicates 2.0, Standard deviation 1.3894780827442335 %): -6.69%
- inhibition (PRVABC59, Concentration 99.9 uM, Number of replicates 2.0, Standard deviation 0.9110496491593663 %): 5.76%

Compound: O=C(Nc1cccc(B(O)O)c1)[C@H]1CCN2CCOC[C@@H]12
- inhibition (PRVABC59, Concentration 49.5 uM, Number of replicates 2.0, Standard deviation 1.8325815145713313 %): 0.689%
- inhibition (PRVABC59, Concentration 99.01 uM, Number of replicates 2.0, Standard deviation 2.075699815014753 %): 1.7%
- inhibition (PRVABC59, Concentration 198.0 uM, Number of replicates 2.0, Standard deviation 2.0144096361025445 %): 4.04%

Compound: Cc1nn([C@@H](C)c2ccc(F)c(F)c2F)cc1C1CCNCC1
- inhibition (PRVABC59, Concentration 49.5 uM, Number of replicates 2.0, Standard deviation 4.947327227676943 %): -1.68%
- inhibition (PRVABC59, Concentration 99.01 uM, Number of replicates 2.0, Standard deviation 2.8449181750441386 %): 1.52%
- inhibition (PRVABC59, Concentration 198.0 uM, Number of replicates 2.0, Standard deviation 2.728003744505586 %): 3.89%

Compound: COc1nscc1-c1ccccc1C(=O)Nc1cnn(C)c1
- inhibition (PRVABC59, Concentration 49.5 uM, Number of replicates 2.0, Standard deviation 2.0613155081961194 %): -1.46%
- inhibition (PRVABC59, Concentration 99.01 uM, Number of replicates 2.0, Standard deviation 1.0972097923679232 %): 1.42%
- inhibition (PRVABC59, Concentration 198.0 uM, Number of replicates 2.0, Standard deviation 0.19246139208887503 %): 3.36%

Compound: Cc1cc(CO)c2cccc(CC(=O)N[C@H](Cc3c[nH]cn3)C(=O)O)c2n1
- inhibition (PRVABC59, Concentration 49.95 uM, Number of replicates 2.0, Standard deviation 0.34100711672855083 %): -8.86%
- inhibition (PRVABC59, Concentration 99.9 uM, Number of replicates 2.0, Standard deviation 0.9059596585584027 %): -5.32%

Compound: O=Cc1ccc(N2CCC(C(=O)N[C@H](CO)Cc3ccc(Cl)cc3)CC2)cc1
- inhibition [2]: 24.1%

Compound: Cc1cc(CO)c2cccc(Cc3cccc(C(=O)N4CC5(CCCOC5)C4)c3)c2n1
- inhibition (PRVABC59, Concentration 49.95 uM, Number of replicates 2.0, Standard deviation 0.5767806333959491 %): -2.97%
- inhibition (PRVABC59, Concentration 99.9 uM, Number of replicates 2.0, Standard deviation 1.1011265622203132 %): -0.434%

Compound: O=C(c1cc(Cl)ccc1NS(=O)(=O)c1ccc(Oc2ccccc2Cl)cc1)N1CCN(c2cccc3sccc23)CC1
- inhibition [1]: 11%

Compound: O=Cc1ccc(N2CCC(C(=O)N3CCO[C@@H](c4ccccc4)C3)CC2)cc1
- inhibition [2]: 17%

Compound: Cc1cc(CO)c2cccc(NC(=O)[C@@H]3CCCC[C@H]3C(=O)O)c2n1
- inhibition (PRVABC59, Concentration 49.95 uM, Number of replicates 2.0, Standard deviation 1.6258787445174738 %): 3.41%
- inhibition (PRVABC59, Concentration 99.9 uM, Number of replicates 2.0, Standard deviation 1.31977157857946 %): 10.8%

Compound: COCc1cc(-c2ccccc2C(=O)Nc2cnn(C)c2)ccn1
- inhibition (PRVABC59, Concentration 49.5 uM, Number of replicates 2.0, Standard deviation 2.988446528102835 %): -2.8%
- inhibition (PRVABC59, Concentration 99.01 uM, Number of replicates 2.0, Standard deviation 3.052465357207912 %): -1.41%
- inhibition (PRVABC59, Concentration 198.0 uM, Number of replicates 2.0, Standard deviation 2.2556370392609493 %): -1.01%

Compound: COC1CN(C(=O)c2cc(Cl)ccc2NS(=O)(=O)c2ccc(Oc3ccccc3Cl)cc2)C1
- inhibition (PRVABC59, Concentration 49.5 uM, Number of replicates 2.0, Standard deviation 0.6071418743640448 %): 6.32%
- inhibition (PRVABC59, Concentration 99.01 uM, Number of replicates 2.0, Standard deviation 1.0994187508452276 %): 8.03%
- inhibition (PRVABC59, Concentration 198.0 uM, Number of replicates 2.0, Standard deviation 2.4498991975993007 %): 8.64%

Compound: CCCCCC(=O)N[C@@H](Cc1ccc(C#N)cc1)C(=O)Nc1cccc(C(N)=O)c1
- inhibition (PRVABC59, Concentration 49.5 uM, Number of replicates 2.0, Standard deviation 1.1507413475985797 %): 0.288%
- inhibition (PRVABC59, Concentration 99.01 uM, Number of replicates 2.0, Standard deviation 0.4412760076959384 %): -0.031%
- inhibition (PRVABC59, Concentration 198.0 uM, Number of replicates 2.0, Standard deviation 0.36329192570389796 %): 1.27%

Compound: O=Cc1ccc(N2CCC(C(=O)Nc3ccc4scnc4c3)CC2)cc1
- inhibition [2]: -2.75%

Compound: CNC(=O)c1cc(Cl)ccc1NS(=O)(=O)c1ccc(C(=O)N2CCOCC2)cc1
- inhibition (PRVABC59, Concentration 49.5 uM, Number of replicates 2.0, Standard deviation 2.1123942311009145 %): 0.25%
- inhibition (PRVABC59, Concentration 99.01 uM, Number of replicates 2.0, Standard deviation 1.3328682902857352 %): 2.39%
- inhibition (PRVABC59, Concentration 198.0 uM, Number of replicates 2.0, Standard deviation 0.3170609632786013 %): 6.71%

Compound: Cc1cnccc1NC(=O)c1cnn(C2CC2)c1
- inhibition (PRVABC59, Concentration 49.5 uM, Number of replicates 2.0, Standard deviation 1.699564164062767 %): -2.95%
- inhibition (PRVABC59, Concentration 99.01 uM, Number of replicates 2.0, Standard deviation 1.3264890275888233 %): -1.94%
- inhibition (PRVABC59, Concentration 198.0 uM, Number of replicates 2.0, Standard deviation 2.1659080003614997 %): -1.13%

Compound: O=C(Nc1ccc([N+](=O)[O-])cc1C(F)(F)F)c1cc(Cl)ccc1NS(=O)(=O)c1ccc(Oc2ccccc2Cl)cc1
- inhibition [1]: 27.2%

Compound: CC1(C)CC(=O)CC(C)(C)N1C(=O)c1cc(Cl)ccc1NS(=O)(=O)c1ccc(Oc2ccccc2Cl)cc1
- inhibition [1]: 18.2%

Compound: CO[C@H]1C[C@@H](CNCc2nnc3ccccn23)C1
- inhibition (PRVABC59, Concentration 49.5 uM, Number of replicates 2.0, Standard deviation 2.1759199842252626 %): -3.19%
- inhibition (PRVABC59, Concentration 99.01 uM, Number of replicates 2.0, Standard deviation 1.2241651616551656 %): -3.67%
- inhibition (PRVABC59, Concentration 198.0 uM, Number of replicates 2.0, Standard deviation 0.35144301359463626 %): -2.83%

Compound: Cc1cc(NC(=O)c2cc(Cl)ccc2NS(=O)(=O)c2ccc(Oc3ccccc3Cl)cc2)cnc1Br
- inhibition [1]: 31.3%

Compound: COc1ccc([C@H](C)NC(=O)c2cc(Cl)ccc2NS(=O)(=O)c2ccc(Oc3ccccc3Cl)cc2)cc1
- inhibition [1]: 35.3%

Compound: CC(C)N(C[C@H](O)c1ccc(O)c(O)c1)C(=O)C1CCN(c2ccc(C=O)cc2)CC1
- inhibition [2]: 20.9%

Compound: O=C(c1cc(Cl)ccc1NS(=O)(=O)c1ccc(Oc2ccccc2Cl)cc1)N1CCN(CCc2ccccc2)CC1
- inhibition [1]: 53.5%

Compound: c1cc(CN2CCOC[C@@H]2Cc2c[nH]c3ccccc23)c2[nH]ncc2c1
- inhibition (PRVABC59, Concentration 49.5 uM, Number of replicates 2.0, Standard deviation 1.764529400651156 %): 5.08%
- inhibition (PRVABC59, Concentration 99.01 uM, Number of replicates 2.0, Standard deviation 2.5865369202481028 %): 8.07%
- inhibition (PRVABC59, Concentration 198.0 uM, Number of replicates 2.0, Standard deviation 0.3813254663636482 %): 7.31%

Compound: Cn1ccc(NS(=O)(=O)c2ccc(Oc3ccccc3)cc2)n1
- inhibition (PRVABC59, Concentration 49.5 uM, Number of replicates 2.0, Standard deviation 3.708556244257721 %): 1.52%
- inhibition (PRVABC59, Concentration 99.01 uM, Number of replicates 2.0, Standard deviation 1.6649328572846385 %): 3.72%
- inhibition (PRVABC59, Concentration 198.0 uM, Number of replicates 2.0, Standard deviation 1.0446639254833907 %): 6.61%

Compound: Cc1noc([C@@H]2CCCCN2C(=O)C2CCN(c3ccc(C=O)cc3)CC2)n1
- inhibition [2]: 25.7%

Compound: CNC(=O)c1cnncc1NS(=O)(=O)c1ccc(Oc2ccccc2Cl)cc1
- inhibition (PRVABC59, Concentration 49.5 uM, Number of replicates 2.0, Standard deviation 0.11085177496765475 %): 3.67%
- inhibition (PRVABC59, Concentration 99.01 uM, Number of replicates 2.0, Standard deviation 0.5160965893855995 %): 7.95%
- inhibition (PRVABC59, Concentration 198.0 uM, Number of replicates 2.0, Standard deviation 0.0817756757043532 %): 15.2%

Compound: O=C(NCc1ccc(Cl)c(C(F)(F)F)c1)c1cc(Cl)ccc1NS(=O)(=O)c1ccc(Oc2ccccc2Cl)cc1
- inhibition [1]: 28.8%

Compound: O=C(NCc1ccccc1Oc1ccccc1)c1cc(Cl)ccc1NS(=O)(=O)c1ccc(Oc2ccccc2Cl)cc1
- inhibition [1]: 15.7%

Compound: O=Cc1ccc(N2CCC(C(=O)NCCc3ccccc3C(F)(F)F)CC2)cc1
- inhibition [2]: 25.8%

Compound: O=C(NCc1ccc(C(=O)N2CCCC2)cc1)c1cc(Cl)ccc1NS(=O)(=O)c1ccc(Oc2ccccc2Cl)cc1
- inhibition [1]: 25.2%

Compound: O=Cc1ccc(N2CCC(C(=O)NCCN3C(=O)c4ccccc4C3=O)CC2)cc1
- inhibition [2]: 28.2%

Compound: O=C(NCCc1c(F)cccc1Cl)c1cc(Cl)ccc1NS(=O)(=O)c1ccc(Oc2ccccc2Cl)cc1
- inhibition [1]: 17.9%
